Reference: PubChem BioAssay AID1345082 (National Center for Advancing Translational Sciences (NCATS), 2018)
Values joined by “and” are separate entries in the source; they are usually repeats but may differ in a detail not shown here. Equal values may be shown once. Screen size: about 94,000 compounds; about 4,000 (4.3%) were called active. The shares of active, inactive and inconclusive entries below differ from those in the screen. Calls come from the whole dose curve; as a rule, active = well fitted inhibition curve with a large enough effect; inconclusive = small, poorly fitted or top-dose-only effect; inactive = no such curve, though single readings can be large or run the other way. A potency beside an inconclusive call is a rough fit, not a confirmed value.

assay: Cytotoxic Profiling in NIH 3T3 Cell Line of Diverse Libraries Using Quantitative High-Throughput Screening; settings: NIH 3T3 viability, CellTiter-Glo ATP luminescence, 48-72 h; series mostly up to 96.7 µM; note: nearly all actives have a fitted effect of over 55% in size
Procedure, shortened: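 ATP-dependent luminescence (CellTiter-Glo) served as the viability signal for NIH 3T3 cells treated with compound for 48 or 72 hr at 37 °C.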
Potency is the fitted concentration of half-maximal effect; tags give direction and shape of the fitted curve.

Structure (SMILES) | Potency
CCC1Oc2ccc(NC(=O)CC(C)(C)C)cc2CN(Cc2ccc(F)cc2)C1=O (stereo unspecified) | inconclusive: 50.1 µM [inhibitor, partial curve, poor fit]
C=CCOc1cccc(-c2nc(C(=O)N(C)Cc3ccco3)cs2)c1 | inconclusive: 50.1 µM [inhibitor, partial curve, poor fit]
COc1cccc(CN2Cc3nc(-c4cccc(NC(C)=O)c4)ccc3OCC2=O)c1 | inconclusive: 89.1 µM [inhibitor, partial curve, poor fit]
O=S(=O)(c1ccccc1)N1CCCC(Cn2c(C3CC3)nc3cccnc32)C1 (stereo unspecified) | inconclusive: 44.7 µM [inhibitor, partial curve, poor fit]
O=S1(=O)CCCC(c2nc(-c3ccccc3)nn2Cc2ccccc2)C1 (stereo unspecified) | inactive
O=C(CCC[C@H]1NC[C@@H]2C[C@H]1CN(Cc1ccccc1)C2)NCc1ccccn1 | inconclusive: 70.8 µM [inhibitor, partial curve, poor fit]
COc1ccc(-c2cc(C[C@@H]3CC[C@H](O)[C@@H](CNCc4cccc(OC)c4)O3)no2)cc1 | inconclusive: 44.7 µM [inhibitor, partial curve, poor fit]
COc1ccc(OC)c(NC(=O)c2ccc3c(c2)N(S(=O)(=O)c2ccccc2)CC3)c1 | inconclusive: 17.8 µM [inhibitor, full curve]
CCOC(=O)C1CCCN(C(=O)CC(c2cccc([N+](=O)[O-])c2)c2c[nH]c3c(CC)cccc23)C1 (stereo unspecified) | inconclusive: 31.6 µM [inhibitor, full curve, poor fit]
COc1cccc(NC(=O)c2c(-c3cnn(C)c3NCc3ccc(C#N)cc3)noc2C)c1 | inconclusive: 50.1 µM [inhibitor, partial curve, poor fit]
CC1(C)C(=O)N(Cc2ccc(O)cc2)[C@H]2CN(CC3CCOC3)C[C@H]2[S+]1(=O)[O-] (stereo partly specified) | inconclusive: 100 µM [inhibitor, single point]
Cc1[nH]nc2c1C(c1cccc(F)c1)C(C#N)=C(N)O2 (stereo unspecified) | inactive
COc1ccc(-c2ccccc2NC(=O)C2CCCN(Cc3cccnc3)C2)cc1 (stereo unspecified) | inactive
CN(C)c1cccc(C(=O)NC2CCCN(c3cc(-c4ccc(F)cc4)[nH]n3)C2)c1 (stereo unspecified) | inconclusive: 50.1 µM [inhibitor, partial curve, poor fit]
CC(C)NC(=O)C1(C)CN(Cc2ccccc2)Cc2ccc(N3CCOCC3)nc21 (stereo unspecified) | inconclusive: 56.2 µM [inhibitor, partial curve, poor fit]
O=C(NC1CCCc2c1[nH]c1ccc(F)cc21)c1ccccn1 (stereo unspecified) | inactive
O=C(Cc1cccc(F)c1)Nc1ccc2ncnc(N3CCCCC3)c2c1 | inconclusive: 44.7 µM [inhibitor, partial curve, poor fit]
Cc1ccc(CCNC(=O)C2CCN(C(=O)c3cc4c(=O)[nH]c(C)cn4n3)CC2)cc1 | inactive
O=C1CN(Cc2ccc(-c3ccccc3)cc2)CCN1c1ccc(Cl)nn1 | inconclusive: 44.7 µM [inhibitor, partial curve, poor fit]
CCNC(=O)C1C(c2cccc(NC(=O)c3cccs3)c2)OC(=O)N1Cc1ccc(C)cc1 (stereo unspecified) | inconclusive: 50.1 µM [inhibitor, partial curve, poor fit]
O=C1CCN(C(=O)C2CCN(Cc3c[nH]c4ccccc34)CC2)CCCCCCN1 | inactive
CC(=O)N1CCC(c2nn(-c3ccc(F)cc3)c(=O)[nH]2)CC1 | inactive

Structure (SMILES) | Potency
COCCOCC1(CNCC2CC2)C[C@@H](O)[C@@H](O)C1 (stereo partly specified) | inactive
CC(=O)NCC(=O)N1Cc2ccccc2CC2(CCN(CC3CCCC3)C2)C1 (stereo unspecified) | inactive
Cc1noc(-c2cccs2)c1C(=O)NC1CCc2ccccc21 (stereo unspecified) | inconclusive: 31.6 µM [inhibitor, partial curve, poor fit]
CCC(COC)NC(=O)c1c(C)noc1-c1ccc(C(C)(C)C)cc1 (stereo unspecified) | inconclusive: 50.1 µM [inhibitor, partial curve, poor fit]
COc1cccc(NC(=O)c2ccc(-c3nnc4ccc(NC(=O)C5CCC5)cn34)cc2)c1 | inactive
CC1(C)C(=O)N(CCOc2ccccc2)[C@H]2CN(Cc3c[nH]c4ccccc34)C[C@H]2[S+]1(=O)[O-] | inconclusive: 50.1 µM [inhibitor, single point]
CSCCC(=O)N1CCCC(CCc2ccccc2F)C1 (stereo unspecified) | active: 39.8 µM
c1ccc(-c2nc3ncccc3[nH]2)nc1 | inconclusive: 31.6 µM [inhibitor, full curve, poor fit] and inconclusive: 100 µM [inhibitor, partial curve]
COc1cccc(-c2cn3c(n2)N(C(=O)c2ccoc2)CCC3)c1 | inactive
CC(C)CNC(=O)c1cn2cc(-c3cccc(C(F)(F)F)c3)sc2n1 | inconclusive: 50.1 µM [inhibitor, partial curve, poor fit]
CN1c2cc(C(=O)NCc3ccc(F)cc3)ccc2C(=O)N2CCCCCC21 (stereo unspecified) | inactive
CC1=C[C@@H](CNCCN(C)C)[C@H](C(C)C)C[C@H]1Cc1nnc(C(C)(C)C)o1 | active: 70.8 µM
Cc1noc(-c2cccc(OC3CN(C(=O)Cc4ccsc4)C3)c2)n1 | inconclusive: 44.7 µM [inhibitor, partial curve, poor fit]
Cn1ncc2c(C(=O)NCCc3ccccc3F)cc(-c3ccc(F)cc3)nc21 | inconclusive: 39.8 µM [inhibitor, partial curve]
O=C1CCN(CC2CCCCC2)CCCC(c2nc(-c3cccnc3)no2)CCN1 (stereo unspecified) | inconclusive: 50.1 µM [inhibitor, partial curve, poor fit]
Cc1cc(=O)n(CC(=O)Nc2ccc(Br)cc2F)c(N2CCc3ccccc3C2)n1 | inconclusive: 50.1 µM [inhibitor, partial curve, poor fit]
Cc1ccc(C2=NC3(CCN(C(=O)c4ccccc4Cl)CC3)ON2)cc1 | inactive
CC(=O)N1CCC(c2nc(-c3nnn4c3COC(c3ccc(Cl)cc3)C4)no2)CC1 (stereo unspecified) | inactive
Cc1ccc(C2Cn3nnc(C(=O)N4CCC(C(=O)NCc5cccc(C)c5)CC4)c3CO2)cc1 (stereo unspecified) | inactive
COc1cccc(CC(=O)N2C[C@@H](F)C[C@H]2C(=O)N2CCOCC2)c1 | inactive
COc1ccc(-c2nc3cc(C)ccc3cc2CN2CCN(C)C(=O)C2)cc1OC | inactive
COc1ccccc1-c1cccc(CN2CCC(NC(=O)c3ccc(C(F)(F)F)cc3)CC2)c1 | active: 25.1 µM

Structure (SMILES) | Potency
O=C1c2cccn2CC(CNS(=O)(=O)c2ccc(F)cc2)N1Cc1ccccc1 (stereo unspecified) | inactive
CCOC(=O)C1CCN(C(=O)C2CCc3nnc(C4CC4)n32)CC1 (stereo unspecified) | inactive
Cc1noc(-c2ccn3c(CNC(=O)c4cc5ccccc5[nH]4)nnc3c2)n1 | inactive
CCN1C(=O)Cc2cc(C(=O)NCC3CCCO3)ccc21 (stereo unspecified) | inconclusive: 70.8 µM [inhibitor, single point]
O=[S+]([O-])(NCC1CN(Cc2ccncc2Cl)CC12CN(c1ccccc1)C2)c1ccccc1 (stereo unspecified) | inconclusive: 50.1 µM [inhibitor, partial curve, poor fit]
CCc1noc(-c2cn(C3CCN(C(=O)c4ccc(OC(F)(F)F)cc4)CC3)nn2)n1 | inconclusive: 20 µM [inhibitor, full curve, poor fit]
Cc1ccc(C2Cn3nnc(-c4noc(COc5cccc(C)c5)n4)c3CO2)cc1 (stereo unspecified) | inactive
C[S+](=O)([O-])c1cccc(-c2cnc3[nH]cc(CC(N)=O)c3c2)c1 | inconclusive: 79.4 µM [inhibitor, partial curve]
CNC(=O)[C@@H]1C[C@H](Oc2cccnc2)CN1C(=O)c1n[nH]c2ccccc12 | inactive
O=S1(=O)NC2(CCN(CCc3ccccc3)C2)COc2ncccc21 (stereo unspecified) | inactive
Cc1ccc(S(=O)(=O)NC[C@H]2O[C@H](Cc3cc(COc4ccccc4)on3)CC[C@@H]2O)cc1 | inconclusive: 50.1 µM [inhibitor, partial curve, poor fit]
O=C(O)c1ccc(CC2CCN(Cc3cnc(-c4ccco4)nc3)C2)cc1 (stereo unspecified) | inactive
COc1ccc(CN2CCc3ncc(C(=O)NCCOc4ccccc4)n3CC2)cn1 | inconclusive: 15.8 µM [inhibitor, full curve, poor fit]
COC(=O)c1ccc2c(c1)nc1n2[C@@H](CNC2CCC2)COC1 | inactive
Cc1ncccc1Oc1ncnc(N2CCCCC(N)C2)c1C (stereo unspecified) | inactive
O=C(c1ccccc1F)N1CCCC2(CC(c3cccc(C(F)(F)F)c3)=NO2)C1 (stereo unspecified) | inconclusive: 50.1 µM [inhibitor, partial curve, poor fit]
COc1ccc(-n2ncc(C(C)NC(=O)Cc3ccc4c(c3)OCO4)c2C)cc1 (stereo unspecified) | inconclusive: 28.2 µM [inhibitor, full curve]
COCCC(=O)NCC12CCCC=C1N(CC1CC1)C(=O)CC2 (stereo unspecified) | inconclusive: 79.4 µM [inhibitor, partial curve, poor fit]
COc1ccccc1C(=O)N1CC(Oc2ccc(-c3noc(-c4ccncc4)n3)cc2)C1 | active: 35.5 µM
COCCNC(=O)c1ccc(OC2CCN(CCc3ccccc3)CC2)c(Cl)c1 | inconclusive: 31.6 µM [inhibitor, partial curve, poor fit]
CC(C)(C)CN1Cc2cc3c(cc2N(CC(O)COc2ccccc2)CCC1=O)OCO3 (stereo unspecified) | inconclusive: 39.8 µM [inhibitor, partial curve, poor fit]
CCOc1ccc(C(=O)N2CCCC3(C2)NC(=O)N(Cc2cc(C)ccc2C)C3=O)cc1 (stereo unspecified) | inconclusive: 70.8 µM [inhibitor, single point]
